Data: the supplement of paper PMC10369915
The other results are listed elsewhere or left out. Cut-off read from the data, not from the text of the source: active = 3.2 or more and inactive = the rest. Most of these values are background signal.

Assays:
Assay in all cases: enrichment score (SH2-bound / input frequency) (ratio); bacterial display of known human phosphotyrosine sites (pTyr-Var adds point mutants) read by sequencing; higher = stronger binding; tyrosines were phosphorylated by kinases first
Conditions in all cases: peptide library: Human pTyr
SHP2 C-SH2 domain E139D = biological target: SHP2 C-SH2 domain E139D
[1] = biological target: SHP2 C-SH2 domain wild-type
SHP2 N-SH2 domain L43F = biological target: SHP2 N-SH2 domain L43F
SHP2 N-SH2 domain T42A = biological target: SHP2 N-SH2 domain T42A
SHP2 N-SH2 domain T52S = biological target: SHP2 N-SH2 domain T52S
[2] = biological target: SHP2 N-SH2 domain wild-type
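Note: displayed peptides selected on beads carrying the immobilized SH2 domain, with library peptides lacking any tyrosine serving as negative controls.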

Binder	enrichment score (SHP2 C-SH2 domain E139D)	enrichment score [1]	enrichment score (SHP2 N-SH2 domain L43F)	enrichment score (SHP2 N-SH2 domain T42A)	enrichment score (SHP2 N-SH2 domain T52S)	enrichment score [2]
GVVGGEDYEEVDRYS [ZN598_HUMAN_306]	inactive: 0.743	inactive: 0.753	inactive: 0.788	inactive: 0.668	inactive: 0.681	inactive: 0.684
IHTGEKPYACLECGK [ZN787_HUMAN_122]	inactive: 1.17	inactive: 1.4	inactive: 0.796	inactive: 1.36	inactive: 0.873	inactive: 0.998
VSPSPTTYRMFRDKS [BCR_HUMAN_360]	inactive: 1.11	inactive: 0.865	inactive: 1.47	inactive: 0.748	inactive: 0.924	inactive: 1
IHTGEKPYECVQCGK [ZNF24_HUMAN_335]	inactive: 0.749	inactive: 0.734	inactive: 0.641	inactive: 0.802	inactive: 1.29	inactive: 0.86
DPEEDEEYYRKQLSY [ZO1_HUMAN_1354]	inactive: 0.984	inactive: 1.09	inactive: 1.06	inactive: 1.1	inactive: 1.22	inactive: 1.09
DPEEDEEYARKQLSA [ZO1_HUMAN_1354_YA]	inactive: 1.39	inactive: 0.974	inactive: 0.917	inactive: 1.3	inactive: 0.965	inactive: 1.26
FFKVPELYEIHKEFY [BCR_HUMAN_554]	inactive: 1.71	inactive: 2.1	inactive: 1.59	inactive: 1.7	inactive: 1.64	active: 3.21
FDFSGWKADHAAATP [NegativeControl02_Ala]	inactive: 0.684	inactive: 0.833	inactive: 0.797	inactive: 0.702	inactive: 0.825	inactive: 0.721
FTLRCPCALLCMCES [NegativeControl03_Ala]	inactive: 1.56	inactive: 1.58	inactive: 1.49	inactive: 1.78	inactive: 2.02	inactive: 1.95
SHFECTCAVSIASTF [NegativeControl05_Ala]	inactive: 1.39	inactive: 1.19	inactive: 1.28	inactive: 1.32	inactive: 1.58	inactive: 1.49
SHFECTCFVSIASTF [NegativeControl05_Phe]	inactive: 1.61	inactive: 1.48	inactive: 1.47	inactive: 1.62	inactive: 1.84	inactive: 2.01
NFANNCRAVQAEGCQ [NegativeControl06_Ala]	inactive: 0.788	inactive: 0.536	inactive: 0.613	inactive: 0.706	inactive: 0.635	inactive: 0.613
NFANNCRFVQAEGCQ [NegativeControl06_Phe]	inactive: 0.575	inactive: 0.539	inactive: 0.547	inactive: 0.604	inactive: 0.547	inactive: 0.584
IEKVVAIYDYTKDKD [ABI1_HUMAN_455]	inactive: 1.05	inactive: 0.802	inactive: 0.854	inactive: 0.851	inactive: 0.984	inactive: 0.703
CFSKDKVFGDFFKVC [NegativeControl11_Phe]	inactive: 1.27	inactive: 1.22	inactive: 1.25	inactive: 1.21	inactive: 1.3	inactive: 1.24
SEWRPFGYPRRRRPL [BCS1_HUMAN_181]	inactive: 0.671	inactive: 0.588	inactive: 0.712	inactive: 0.574	inactive: 0.597	inactive: 0.545
GVRWAKLYSLVIWGC [BDKRB2_HUMAN_177]	inactive: 2.9	inactive: 2.78	inactive: 2.24	inactive: 2.37	inactive: 2.51	inactive: 2.84
EAQYQREYSEFKRQQ [BECN1_HUMAN_233]	inactive: 0.826	inactive: 0.631	inactive: 0.687	inactive: 0.696	inactive: 0.764	inactive: 0.667
